Laboratory results taken from the supplement of paper PMC3334620.
Whole data set: some 33,000 sequences, median “E-score (-0.5 to 0.5)” near -0.035, cut for the highest 2% near 0.34. This is one part of the list.

What follows are sequences tested against T1, Mot3 (UniProt P54785) (assay: PBM E-score (8-mer binding enrichment) (E-score (-0.5 to 0.5)); higher = stronger / more preferred TF binding; most listed sequences are background and not binding sites). Conditions: protein concentration: 200 nM; construct: GST-full length.
T1 sequence: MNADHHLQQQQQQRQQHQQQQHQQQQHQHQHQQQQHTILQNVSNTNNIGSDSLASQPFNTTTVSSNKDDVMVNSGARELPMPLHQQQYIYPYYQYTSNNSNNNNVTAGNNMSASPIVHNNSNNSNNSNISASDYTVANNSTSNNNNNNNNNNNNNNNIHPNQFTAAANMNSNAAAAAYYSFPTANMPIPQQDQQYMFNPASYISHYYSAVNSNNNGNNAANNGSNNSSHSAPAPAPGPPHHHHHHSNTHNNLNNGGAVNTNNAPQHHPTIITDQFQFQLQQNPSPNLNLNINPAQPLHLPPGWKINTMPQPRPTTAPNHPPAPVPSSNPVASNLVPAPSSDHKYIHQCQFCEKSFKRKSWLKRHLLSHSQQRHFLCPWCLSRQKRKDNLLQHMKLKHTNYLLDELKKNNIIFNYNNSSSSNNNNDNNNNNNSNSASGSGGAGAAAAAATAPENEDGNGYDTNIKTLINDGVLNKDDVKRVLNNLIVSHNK
Procedure: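 Universal 'all 10-mer' protein binding microarrays (Agilent AMADID 015681) probed with GST-tagged S. cerevisiae TFs (full-length or DBD) made by in vitro transcription/translation (PURExpress), about 100-200 nM. Bound TF was detected with fluorescent anti-GST. Each ungapped 8-mer (which stands for itself and its reverse complement) is scored by the PBM enrichment score (E-score), a modified Wilcoxon-Mann-Whitney statistic from -0.5 to +0.5, computed with the Universal PBM Analysis Suite. Scale: above 0.35 generally sequence-specific binding.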

Row | Sequence | PBM E-score
1 | GAGAAGCC | -0.193
2 | TGCCCGAA | -0.0549
3 | AATACCGC | -0.0278
4 | CCACTAGG | -0.224
5 | CTTCATAA | -0.082
6 | GGTCGCAC | -0.104
7 | CGACAACA | 0.197
8 | ATTTTCCA | -0.0526
9 | CATTGACC | 0.0128
10 | GGGTCCTA | -0.159
11 | ACTTCCAT | 0.00123
12 | CGGGGGTC | -0.155
13 | AAATACAA | 0.281
14 | CGGACACG | -0.117
15 | AACTGTAG | 0.0868
16 | AAGTATCC | -0.0961
17 | GGGAACCC | -0.279
18 | CATGAAAA | 0.137
19 | CGACGAGA | -0.0757
20 | CCGGCTCG | -0.366
21 | GCCTGTAC | 0.338
22 | CACTTCGC | -0.0817
23 | CCATCAAC | 0.175
24 | CAATGAAG | 0.157
25 | AATAGTAT | 0.108

Row | Sequence | PBM E-score
26 | AACAGAGA | -0.103
27 | ATGGGGCC | -0.277
28 | CTATGTTC | 0.217
29 | ACACTAGC | -0.024
30 | AACGGTTA | 0.00042
31 | AACTTATT | 0.0869
32 | AGACCACT | -0.0279
33 | AATAAGTC | -0.114
34 | GCCAGCGA | -0.121
35 | AATTCTGC | -0.0278
36 | GAGTGGGC | -0.277
37 | AAGCGGCG | -0.104
38 | CCGACTCG | -0.149
39 | AGATTTGG | -0.246
40 | TACATCAA | 0.209
41 | CACAACCA | 0.0953
42 | CGGCGTGC | -0.145
43 | GGGCTAAC | -0.112
44 | AACTCATC | 0.124
45 | CACGCTAG | 0.0307
46 | CCGAAACC | -0.196
47 | ACTCCATG | -0.134
48 | AGAATCAA | -0.0862
49 | CCGTTCAA | -0.0267
50 | AACGGAAG | 0.0569

Row | Sequence | PBM E-score
51 | GTAATCCA | 0.225
52 | AACACTGA | 0.157
53 | CTATTGCC | 0.231
54 | GCAGAGCC | -0.173
55 | CCTCTGGC | -0.306
56 | AGGGAGAC | -0.16
57 | ACGTGGAA | -0.046
58 | TTCGAAAA | 0.0802
59 | AGGATGAG | -0.0928
60 | TAGCAGAA | 0.0832
61 | ATTTAGCA | 0.111
62 | ACCAAGAA | 0.0562
63 | CGCGAATC | 0.0363
64 | AAGTAGTA | 0.112
65 | ATACTCCC | -0.0986
66 | CATCTGCA | -0.0636
67 | GGATCCCC | -0.367
68 | CTTGGCCC | -0.38
69 | GTGCTACA | 0.178
70 | AGCTTGTG | -0.00177
71 | GTTGCCCA | 0.103
72 | ATCAGTGC | -0.00075
73 | CTGAGAGA | -0.301
74 | ATGAAGTG | -0.204
75 | GTAACCGA | 0.145

Row | Sequence | PBM E-score
76 | ACCTCCAG | -0.0604
77 | CGACAGGC | 0.217
78 | ACGGGTAG | 0.0227
79 | GCCATGAC | -0.192
80 | GTAATTCA | 0.306
81 | ATGTACGA | 0.163
82 | CAGGAACG | 0.466
83 | AAAAGCGT | -0.0234
84 | AAGCTATC | 0.0724
85 | CATATGCC | 0.05
86 | GCGGATCA | -0.145
87 | TCTCACCA | -0.192
88 | AGATAACT | -0.141
89 | ATTTGCCA | -0.141
90 | AGCGTAAA | 0.12
91 | ATGCTAAA | 0.118
92 | CAAAAATC | -0.0172
93 | AACACGCG | 0.301
94 | ACCGCAAT | -0.0425
95 | CATCTTGC | -0.133
96 | CCACAGCA | -0.0823
97 | ATGGTGTA | 0.191
98 | GGAGCACA | -0.177
99 | AGCGCTCC | -0.197
100 | AAAATTTG | 0.113

Row | Sequence | PBM E-score
101 | GGTGCGTA | 0.195
102 | GCACATCA | 0.0286
103 | TAGACTAA | -0.108
104 | AGGAGATG | -0.0164
105 | CACTGTGG | -0.108
106 | ACGTACAG | 0.123
107 | ACGACGCG | 0.0915
108 | GCAGCAGC | 0.109
109 | GTTCCAGA | -0.0891
110 | ATTCAATC | -0.0884
111 | GGGCCAAA | -0.242
112 | CGTTGATA | 0.114
113 | ACACCTGG | 0.104
114 | GTGTCACA | 0.102
115 | CCAGGGAA | -0.242
116 | TGGGTTAA | 0.135
117 | ACGTTACC | 0.173
118 | CGATGGGA | -0.272
119 | ATGGTTCG | -0.00557
120 | GGTCAATA | -0.0849
121 | GAAGGTCC | -0.134
122 | AATTAATT | 0.138
123 | AGGACGTG | -0.0454
124 | GTTCTCGA | -0.028
125 | CTAGTGTC | -0.194

Row | Sequence | PBM E-score
126 | AAAGGTCC | -0.0572
127 | ACCTTGGA | -0.0979
128 | AGAGAGTG | -0.133
129 | CTGGATAA | -0.0226
130 | ACTTATGA | -0.0662
131 | GCTTTTTA | 0.139
132 | ACGTGAGA | 0.00152
133 | AGGCCCCC | -0.0567
134 | GTTCGATA | 0.00894
135 | TAAGTCGA | -0.0559
136 | ATCCGGGC | -0.214
137 | AATCCCCG | -0.129
138 | CCCCAATA | -0.142
139 | AAACCATC | 0.023
140 | AACCGACG | 0.0429
141 | CCGGAAGA | 0.029
142 | AGTAAGGC | 0.195
143 | GAGTTGGC | -0.0348
144 | AGTGACTC | -0.12
145 | CATACGCC | -0.0598
146 | ACCACGCA | 0.0269
147 | AGTTCTAA | -0.0642
148 | CCAGCGAC | -0.0489
149 | AAAAGACC | -0.0992
150 | CATGCAAC | 0.0717

Row | Sequence | PBM E-score
151 | AGTATAGG | 0.0641
152 | CTAATAAC | 0.161
153 | ATGCCGCC | -0.117
154 | CTTGCATC | -0.16
155 | ACATCCTA | 0.0924
156 | CAAGGCTA | 0.156
157 | CTCGCGCC | -0.182
158 | AGCGACTA | 0.0607
159 | GTGCGTGA | 0.165
160 | AATGCGTA | 0.171
161 | ACTCTTTA | 0.159
162 | ACCCAGGT | -0.00688
163 | AACAAAAA | 0.244
164 | AGGTTAGG | -0.0707
165 | GCGAGTCA | -0.208
166 | CGCAACTC | -0.0761
167 | TAGCACCA | -0.0284
168 | ATCGTCGG | -0.21
169 | ACTCGTTC | 0.122
170 | ACTGCGTC | -0.0852
171 | CTTGCGAA | 0.142
172 | ACGGAAAT | 0.105
